Whole data set: some 110,000 compounds, median “z-score” near -0.1, cut for the highest 2% near 2. The list shows a part of the results.
Molecular target: Metabotropic glutamate receptor 8 (Rattus norvegicus) (UniProt P70579)
Test: rat mGluR8 modulators via GIRK flux, primary screen, cell-based, thallium flux, HTS (AID 488969)
Details: HEK293 rat mGluR8, GIRK (G protein-gated inwardly rectifying potassium channel) thallium flux, FluoZin2; at 10 µM; stronger effect = higher value; submaximal glutamate (EC20) added with thallium

Chain of UniProt P70579 (P70579 whole entry, looked up): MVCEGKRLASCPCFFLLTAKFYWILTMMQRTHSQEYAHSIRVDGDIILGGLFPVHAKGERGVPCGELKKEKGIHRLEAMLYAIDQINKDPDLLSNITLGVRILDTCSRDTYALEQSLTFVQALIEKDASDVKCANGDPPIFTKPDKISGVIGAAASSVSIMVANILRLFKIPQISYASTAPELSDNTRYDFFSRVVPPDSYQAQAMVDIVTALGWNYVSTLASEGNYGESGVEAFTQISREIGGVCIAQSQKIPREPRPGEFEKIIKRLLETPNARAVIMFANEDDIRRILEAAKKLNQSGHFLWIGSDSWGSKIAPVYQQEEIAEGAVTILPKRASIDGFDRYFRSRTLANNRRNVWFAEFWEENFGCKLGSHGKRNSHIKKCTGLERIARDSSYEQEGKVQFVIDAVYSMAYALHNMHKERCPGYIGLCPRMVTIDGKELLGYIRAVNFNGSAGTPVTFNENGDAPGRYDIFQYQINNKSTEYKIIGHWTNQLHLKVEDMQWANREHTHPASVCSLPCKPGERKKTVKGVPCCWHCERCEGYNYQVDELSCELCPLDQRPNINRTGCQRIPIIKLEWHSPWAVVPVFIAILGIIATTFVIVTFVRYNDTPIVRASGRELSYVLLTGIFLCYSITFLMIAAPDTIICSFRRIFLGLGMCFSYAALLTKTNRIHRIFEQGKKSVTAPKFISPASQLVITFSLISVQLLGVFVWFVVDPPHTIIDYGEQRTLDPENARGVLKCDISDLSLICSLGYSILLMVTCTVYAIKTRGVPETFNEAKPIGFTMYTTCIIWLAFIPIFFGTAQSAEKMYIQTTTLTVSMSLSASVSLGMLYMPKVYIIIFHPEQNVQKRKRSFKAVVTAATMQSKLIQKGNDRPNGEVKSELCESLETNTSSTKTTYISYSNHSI

| Structure (SMILES) | z-score |
| --- | --- |
| COC(=O)c1cccc(COC(=O)c2ccccc2NC(=O)c2ccco2)c1 | 0.262 |
| CCOc1cc(C(=O)N2CCN=C2SC)cc(OCC)c1OCC | 0.00226 |
| Cc1ccc(C(=O)N/C(=C\c2ccc(-c3ccc(Br)cc3)o2)C(=O)NC2CCS(=O)(=O)C2)cc1 (centres undefined) | -0.13 |
| O=C(Oc1cccc2c(O)cccc12)c1ccccc1 | -0.446 |
| O=S(=O)(c1ccc2ccccc2c1)N1CCCCC1 | 0.0683 |
| CCCN(CCC)S(=O)(=O)c1ccc(C(=O)Nc2nc3c(s2)CCc2ccccc2-3)cc1 | -0.276 |
| CCCCc1nc(S(=O)(=O)c2ccc(Cl)cc2)c(N2CCOCC2)o1 | -0.44 |
| COc1cccc(-c2nnc(-c3ccc(C(F)(F)F)cc3)o2)c1 | -0.245 |
| CN(C1CCCCC1)S(=O)(=O)c1ccc2c(c1)c(=O)c(C(=O)NCCN1CCCC1)cn2C | 0.253 |
| COc1ccccc1-n1cnc2cc(NS(=O)(=O)c3ccc(Br)cc3)ccc21 | -0.513 |
| O=C(CCc1nc2ccccc2c(=O)[nH]1)OCc1ccccc1F | -0.226 |
| Cc1ccc2cc3c(N)[nH]nc3nc2c1 | -0.203 |
| COC(=O)c1sccc1-n1cccc1C(=O)NCc1ccccc1 | -0.494 |
| Cc1ccc(NC(=O)COC(=O)c2ccccc2-c2nc3ccccc3s2)c(C)c1 | -0.289 |
| COC(=O)c1nnn(Cc2ccccc2)c1N | 0.645 |
| CSc1ncc(Cl)c(C(=O)Nc2sc3c(c2C(=O)NCc2ccco2)CCCC3)n1 | -1.07 |
| O=C(CO/N=C/c1ccccc1)N1c2ccccc2Oc2ccccc21 | -0.069 |
| O=C(COC(=O)COc1ccccc1)Nc1ccc(OC(F)(F)F)cc1 | -1.71 |
| c1ccc(OCCCc2nc(-c3cccnc3)no2)cc1 | 0.16 |
| CCC(=O)N(C)C(c1ccccc1Cl)c1nnnn1-c1c(C)cccc1C (centres undefined) | -0.215 |
| CC(NC(=O)COC(=O)c1ccc([N+](=O)[O-])s1)c1ccccc1 (centres undefined) | 0.0733 |
| COc1ccc(/C=N/NC(=O)c2cc(C34CC5CC(CC(C5)C3)C4)[nH]n2)cc1OC | -0.412 |
| CN1/C(=C\C(=S)NC(=O)c2ccccc2Cl)C(C)(C)c2ccccc21 | 0.0507 |
| Cc1nc(SCc2ccc([N+](=O)[O-])cc2)nc2ccccc12 | -0.151 |
| Cn1nc(-c2ccccc2)c(C(O)c2ccc(Cl)cc2)c1Cl (centres undefined) | -0.238 |
| COC(=O)C1=C(C)N=C2SC(C)C(=O)N2C1/C=C/c1ccccc1OC (centres undefined) | -0.131 |
| O=C(C1CCCO1)N1CCN(Cc2nc3ccccc3c(=O)[nH]2)CC1 (centres undefined) | 0.339 |

| Structure (SMILES) | z-score |
| --- | --- |
| O=C(CS(=O)(=O)c1c[nH]c2ccccc12)NC1CCCCC1 | 0.311 |
| COc1cccc(C2(c3cccc(OC)c3)CC2C(=O)Nc2cccc3ccccc23)c1 (centres undefined) | -0.0171 |
| CC(C)(O)C#CC#CCN1CCOCC1 | 0.277 |
| CC(C)C(NC(=O)C12CC3CC(CC(C3)C1)C2)C(=O)N/N=C/C1=C(N2CCOCC2)C(=C\c2ccc([N+](=O)[O-])cc2)/CC1 (centres undefined) | -0.21 |
| CCCC(O)(CCN1CCOCC1)c1ccc(Br)cc1 (centres undefined) | -0.00424 |
| COc1ccc(OC)c(-c2nnc(SCC(=O)N3CCOCC3)o2)c1 | -0.89 |
| COc1ccccc1-n1nnnc1SCC(=O)Nc1cc(C)on1 | -0.38 |
| CCCCCCCc1nc2c(=O)[nH]c3ccccc3c2o1 | 0.184 |
| Cc1cc(NC(=O)c2ccco2)ccc1-n1cnnn1 | 0.0211 |
| CCCc1cc(=O)[nH]c(SCc2nc3ccccc3s2)n1 | -0.78 |
| COC(=O)[C@@H](NC(=O)Nc1cc(Cl)ccc1C)C(C)C | 0.422 |
| Cc1ccc2c(c1)c1c3n2CCCN(Cc2ccccc2)C3CCC1 (centres undefined) | -0.366 |
| Cc1ccc(-n2ccc(=O)c(C(=O)O)n2)cc1 | -0.105 |
| CC(Sc1nc2ccccc2[nH]1)C(=O)Nc1ccc2c(c1)OCCO2 (centres undefined) | -0.436 |
| COc1cc2c(cc1OC)C(COc1ccc3c(C)cc(=O)oc3c1)N(C(=O)c1ccco1)CC2 (centres undefined) | 0.044 |
| CNCC(O)COc1ccccc1 (centres undefined) | 0.394 |
| O=C(Nc1ccccc1Cl)N1CCN(c2ccccn2)CC1 | -0.555 |
| C=CCOc1c2ccc(C(=O)NCc3ccc(OC)cc3)cc2nn1C | -0.117 |
| CCOc1cc(/C=N/NC(=O)Cc2ccc(C(F)(F)F)cc2[N+](=O)[O-])ccc1O | -0.332 |
| Cc1ccc(NC(=S)NCCc2ccccc2)c(C)c1 | 0.0618 |
| Cc1ccc(Sc2ncnc(N)c2[N+](=O)[O-])cc1 | 0.206 |
| COc1ccc(CCNC(=O)N2CCOCC2)cc1 | -0.0601 |
| COc1ccc(N2CCC(CNC(=S)Nc3cccc(C)c3)C2)cc1 (centres undefined) | -0.0754 |
| Cc1cc(OCC(=O)Nc2cc(-c3nn4c(C)nnc4s3)ccc2C)ccc1Cl | -0.447 |
| Cc1ccc(-c2nnc(NCc3nc4ccccc4[nH]3)c3ccccc23)cc1S(=O)(=O)N1CCOCC1 | -0.308 |
| CCOC(=O)Cc1c[nH]c2ccccc12 | 0.418 |
| CCSCCOC(=O)C1=C(C)NC(=O)NC1c1ccccc1 (centres undefined) | -0.376 |

Source: PubChem BioAssay AID488969 (Vanderbilt High Throughput Screening Facility, 2010)
